Measured values taken from PubChem BioAssay AID1347417 (National Center for Advancing Translational Sciences (NCATS), 2020).
Where “and” joins values, the source holds several entries; their conditions need not be identical. Equal values may be shown once. In all, about 120,000 compounds went through this assay and about 5,300 (4.4%) were called active. The inconclusive results got no clear call from the source; some entries with a clear call stand among them for comparison. The call rests on the fitted dose curve; in most records, active means well fitted inhibition curve with a large enough effect; inconclusive means small, poorly fitted or top-dose-only effect; inactive means no such curve, though single readings can be large or run the other way. A potency beside an inconclusive call is a rough fit, not a confirmed value.

Experiment: qHTS Primary assay for Inhibitors of Plasmodium falciparum Dd2 growth in vitro; further: nearly all actives have a fitted effect of over 65% in size;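 on activity, negative = inhibition: plate controls were DMSO vehicle for no effect and reference drug for full effect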
Details: P. falciparum Dd2 growth, SYBR Green, 72 h; activity, negative = inhibition: at 28.9 µM (top of the series) unless noted; series mostly up to 28.9 µM
Method in brief: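 Infected erythrocytes (Dd2, 0.3% parasitemia, 2.5% hematocrit final) are added to compound in RPMI-1640/Albumax II medium, grown 72 h at 37C in low oxygen, then lysed with saponin/Triton-X containing SYBR Green and read by fluorescence.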
Potency means the concentration at half of the fitted maximal effect; tags describe the fitted curve by direction and shape.

Question: With `Cc1ccc([C@@H]2CN(C(=O)c3snnc3C)[C@@H]3C4CCN(CC4)[C@@H]32)cc1` as the molecule, how does the Potency read?
Answer: The Potency was active: 14.1 µM.

Question: For `CCOc1ccc(-c2cc(-c3nc(-c4cc(OC)c(OC)c(OC)c4)no3)[nH]n2)cc1Cl`, which Potency is on record?
Answer: The Potency was inconclusive: 17.8 µM [inhibitor, single point].

Question: Which “activity, negative = inhibition” value does the source give for `O=C(CC1CCCN(c2cn[nH]c(=O)c2)C1)N1CCCCC1` (stereo not given) here?
Answer: Its value is inactive: 14.9%.

Question: For `O=C(NCC1Cn2cccc2C(=O)N1Cc1ccccc1)C1CC1` (stereo not given), which Potency is on record?
Answer: Its Potency is inconclusive: 12.6 µM [inhibitor, single point].

Question: With `O=c1[nH]nc2n1CCN(C1CCOCC1)CC2` as the molecule, how does the “activity, negative = inhibition” value read?
Answer: Its value is inactive: -3.48%.

Question: With `O=C1CC(c2ccccc2)N(C(=O)CNS(=O)(=O)c2cccs2)CCCCCCN1` (stereo not given) as the molecule, how does the Potency read?
Answer: Its Potency is inconclusive: 20 µM [inhibitor, single point].

Question: Which Potency does the source give for `O=C(Nc1cccc(Cl)c1)c1ccnc(-c2nnc3ccc(N4CCOCC4)nn23)c1` here?
Answer: Its Potency is inconclusive: 6.31 µM [inhibitor, full curve, poor fit].

Question: For `O=C(NCc1ccco1)NC1CCc2nnc(C3CC3)n2CC1` (stereo not given), which “activity, negative = inhibition” value is on record?
Answer: The value was inactive: 2.07%.

Question: With `COc1cc2c(cc1OC)C(COc1ccc(F)cc1)N(C(=O)c1ccc(S(=O)(=O)N3CCCC3)cc1)CC2` (stereo not given) as the molecule, how does the Potency read?
Answer: Its Potency is inconclusive: 8.91 µM [inhibitor, single point].

Question: Which Potency does the source give for `COc1cc(C2CC(=O)N(Cc3ccc(F)cc3)c3ccccc3S2)cc(OC)c1OC` (stereo not given) here?
Answer: Its Potency is active: 1.12 µM.

Question: For `COC(=O)c1cc(NC(=O)[C@H](CCS(C)(=O)=O)N2Cc3ccccc3C2=O)cc(C(=O)OC)c1`, which Potency is on record?
Answer: Its Potency is inconclusive: 12.6 µM [inhibitor, single point].

Question: With `Cn1cc(CNC(=O)c2coc(CN3CCN(C/C=C/c4ccccc4)CC3)n2)cn1` as the molecule, how does the “activity, negative = inhibition” value read?
Answer: Its value is inactive: -3.05%.

Question: For `COc1ccc(Br)c(C(=O)Nc2cc3c(cc2N2CCCCC2)n(C)c(=O)c(=O)n3C)c1`, which Potency is on record?
Answer: The Potency was inconclusive: 17.8 µM [inhibitor, single point].

Question: Which Potency does the source give for `O=C(NC1CC1)c1nc(-c2cccc(C(F)(F)F)c2)c2cnccn12` here?
Answer: The Potency was inconclusive: 1.41 µM [inhibitor, partial curve, poor fit].

Question: With `CCC(=O)N1c2ccccc2CC1C(=O)NCCc1ccccc1Cl` (stereo not given) as the molecule, how does the Potency read?
Answer: The Potency was inconclusive: 11.2 µM [inhibitor, single point].

Question: For `CN(C)c1ccc(-c2nc(C3CC(=O)N(c4ccc(F)cc4)C3)no2)cc1` (stereo not given), which “activity, negative = inhibition” value is on record?
Answer: The value was inactive: 26.9%.

Question: With `COc1cccc(-c2cc(C3CCN(C(=O)Nc4ccc(OC)cc4OC)CC3)[nH]n2)c1` as the molecule, how does the Potency read?
Answer: Its Potency is inconclusive: 6.31 µM [inhibitor, partial curve, poor fit].

Question: Which “activity, negative = inhibition” value does the source give for `COCCNC(=O)[C@@H]1C[C@H](Oc2ccccc2)CN1C(=O)c1ccc(OC)c(F)c1` here?
Answer: The value was inactive: 35.7%.

Question: Which “activity, negative = inhibition” value does the source give for `Cc1ccc(C#N)c(N2CC[C@@H](c3ccc4c(c3)OCO4)[C@H](O)C2)n1` here?
Answer: Its value is inactive: 4.6%.

Question: With `O=C1CCN(C(=O)CCC2CCCC2)CCCC(c2nc(-c3cccnc3)no2)CCN1` (stereo not given) as the molecule, how does the Potency read?
Answer: The Potency was inconclusive: 2 µM [inhibitor, full curve, poor fit].

Question: With `COc1ccc(-c2cn3cccnc3n2)cc1NC(=O)COc1ccccc1` as the molecule, how does the Potency read?
Answer: The Potency was inconclusive: 10 µM [inhibitor, single point].

Question: Which Potency does the source give for `CCC1=Nc2cc(C(=O)NCc3ccccc3OC)ccc2Sc2ccc(Cl)cc21` here?
Answer: The Potency was inconclusive: 12.6 µM [inhibitor, single point].

Question: Which Potency does the source give for `CCOc1ccccc1CN1CCC2(CCN(C(=O)Cc3ccccn3)CC2)Oc2ccccc21` here?
Answer: Its Potency is active: 11.2 µM and inconclusive: 2.51 µM [inhibitor, partial curve, poor fit].

Question: Which “outcome” value does the source give for `O=C(Nc1ccc(F)cc1)C1CCN(C(=O)c2ncn3c2COC(c2ccc(F)cc2)C3)CC1` (stereo not given) here?
Answer: Its value is “inactive”.

Question: For `Cc1ccc(OCc2nc(C3CN(C(=O)c4n[nH]c5ccccc45)C3)no2)cc1`, which Potency is on record?
Answer: Its Potency is inconclusive: 6.31 µM [inhibitor, partial curve, poor fit].

Question: Which Potency does the source give for `CCCCC(=O)NC1CCN(c2cnn(Cc3ccccc3)c(=O)c2)CC1` here?
Answer: Its Potency is inconclusive: 5.01 µM [inhibitor, partial curve].

Question: Which Potency does the source give for `COc1cccc(CN2CCC3(CCC3OC)CC2)n1` (stereo not given) here?
Answer: The Potency was inconclusive: 20 µM [inhibitor, partial curve, poor fit].

Question: For `Cc1ccc(F)c(NC(=O)[C@@H]2COCC(=O)N2Cc2ccc(F)cc2)c1`, which Potency is on record?
Answer: The Potency was inconclusive: 15.8 µM [inhibitor, single point].

Question: For `COc1ccc(-c2cc(N3CCC(NC(=O)c4ccccc4)CC3)n[nH]2)cc1`, which Potency is on record?
Answer: Its Potency is inconclusive: 1.41 µM [inhibitor, partial curve, poor fit].

Question: With `O=C(Cc1cccc(Cl)c1)N1CCc2c(n(CCOc3ccccc3)n(-c3ccccc3)c2=O)C1` as the molecule, how does the Potency read?
Answer: The Potency was inconclusive: 8.91 µM [inhibitor, partial curve, poor fit].

Question: Which Potency does the source give for `CCOC(=O)CN(Cc1ccccc1)C(C(=O)NC1CCCCC1)c1ccc(C)cc1` (stereo not given) here?
Answer: The Potency was inconclusive: 17.8 µM [inhibitor, single point].

Question: With `O=C(NCc1ccc(Cl)cc1)c1ccc(NC(=O)N2CC3CCCN3c3ccccc32)cc1` (stereo not given) as the molecule, how does the Potency read?
Answer: Its Potency is inconclusive: 8.91 µM [inhibitor, single point].

Question: For `O=C(CN1CCCc2nc(-c3ccccc3)ncc2C1=O)NCCc1c[nH]c2ccccc12`, which Potency is on record?
Answer: The Potency was inconclusive: 14.1 µM [inhibitor, single point].

Question: With `CC1=C(c2ccc(C)cc2)S(=O)(=O)NC1=NCCCN1CCN(c2cc(C)ccc2C)CC1` as the molecule, how does the Potency read?
Answer: The Potency was inconclusive: 5.01 µM [inhibitor, partial curve, poor fit].

Question: For `Cc1ccsc1CN1CCCOCCNC(=O)[C@@H]2CCCC[C@@H]21`, which Potency is on record?
Answer: The Potency was inconclusive: 10 µM [inhibitor, single point].

Question: With `CN1Cc2c(cc(N3CCOCC3)nc2-c2cccc(F)c2)C1=O` as the molecule, how does the “outcome” value read?
Answer: The value was “inactive [at 44.1 µM]”.

Question: For `COc1ccccc1CN1CCN(C(=O)CCC[C@H]2NC[C@@H]3C[C@H]2CN(Cc2ccccc2)C3)CC1`, which Potency is on record?
Answer: Its Potency is inconclusive: 14.1 µM [inhibitor, partial curve, poor fit].

Question: For `COc1ccc(CN2CCc3nc(Nc4ccccc4)ncc3C2)c(OC)c1OC`, which Potency is on record?
Answer: The Potency was inconclusive: 8.91 µM [inhibitor, partial curve].

Question: For `COc1ccc(NC(=O)C2CN(S(C)(=O)=O)CC23CCCCC3)c(OC)c1` (stereo not given), which “outcome” value is on record?
Answer: The value was “inactive”.

Question: For `CCCCn1cc(S(=O)(=O)c2ccc(OCC)cc2)c(=O)c2cc(OC)c(OC)cc21`, which Potency is on record?
Answer: The Potency was inconclusive: 5.62 µM [inhibitor, partial curve].
